Results as given in the supplement of paper PMC3334620.
The full ranking holds about 33,000 sequences; the median of “E-score (-0.5 to 0.5)” is about -0.012, and the highest 2% start at about 0.27. The list shows a part of the results.

These sequences were tested against T1, Vhr1 (UniProt P40522) (assay: PBM E-score (8-mer binding enrichment) (E-score (-0.5 to 0.5)); higher = stronger / more preferred TF binding; most listed sequences are background and not binding sites). Conditions: protein concentration: 200 nM; construct: GST-full length.
T1 sequence: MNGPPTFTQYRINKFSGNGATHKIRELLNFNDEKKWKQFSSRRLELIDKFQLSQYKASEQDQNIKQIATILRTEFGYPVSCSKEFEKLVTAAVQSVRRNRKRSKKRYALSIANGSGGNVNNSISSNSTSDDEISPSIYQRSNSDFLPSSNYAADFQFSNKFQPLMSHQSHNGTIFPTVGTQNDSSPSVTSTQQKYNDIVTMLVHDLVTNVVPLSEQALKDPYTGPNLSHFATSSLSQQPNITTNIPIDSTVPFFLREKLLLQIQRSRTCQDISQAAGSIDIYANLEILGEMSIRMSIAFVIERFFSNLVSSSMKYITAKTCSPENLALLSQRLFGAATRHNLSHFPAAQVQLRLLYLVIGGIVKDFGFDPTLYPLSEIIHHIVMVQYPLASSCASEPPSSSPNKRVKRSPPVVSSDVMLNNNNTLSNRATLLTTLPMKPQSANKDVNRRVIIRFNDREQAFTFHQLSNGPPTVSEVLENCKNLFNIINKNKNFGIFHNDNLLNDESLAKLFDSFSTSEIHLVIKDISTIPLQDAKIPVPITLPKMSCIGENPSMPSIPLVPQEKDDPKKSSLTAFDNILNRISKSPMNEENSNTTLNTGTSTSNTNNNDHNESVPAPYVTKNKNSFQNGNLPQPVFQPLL
Summary of the method: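 Yeast transcription factors carrying a GST tag, as full-length proteins or DNA-binding domains, were produced by PURExpress in vitro transcription/translation. About 100-200 nM protein was applied to universal all-10-mer Agilent arrays, double-stranded by primer extension on fresh or once-stripped slides. Bound protein was detected with fluorescent anti-GST, and scans were normalised with masliner. The Universal PBM Analysis Suite gave each ungapped eight-base word, pooled with its reverse complement, an E-score, a modified Wilcoxon-Mann-Whitney statistic.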

Sequence | PBM E-score
ACTGGGCG | -0.0166
ACGGTGCA | -0.162
TACTGTGA | 0.13
GCTTGAAC | -0.0928
CATCAGAG | 0.0134
CCGGCGGA | 0.0876
ACCGATAG | 0.131
CCGGACCG | 0.147
TACAAAGA | 0.0111
AGCAATCC | -0.172
AGGTCCAA | -0.195
CAGGATAA | 0.11
AACGGATT | 0.0207
CAATATTC | -0.0108
CCAGGAAC | -0.133
ATGCGGGG | -0.108
CTCATTTA | 0.0469
AGACAGTC | 0.119
AACTGAAG | -0.0593
TCAAGGCA | -0.102
GCAATGGC | -0.00625
CCTCGGAG | 0.00615

Sequence | PBM E-score
AGCCAGAA | -0.00071
CGAGGATA | 0.0422
ATCGTGGA | 0.167
GAAGCGAC | 0.0941
AAGCCTAT | -0.194
CTGCAGGC | -0.18
GCTAAACA | -0.0852
CTATGCCA | -0.0701
GGTTATAA | -0.0347
CAACCACG | 0.202
AACCAAGG | 0.00222
GCCTCAAA | -0.0409
AAAGGCGT | -0.19
CTAAGTGC | -0.0373
CCATAGGG | -0.0399
AGATGATC | 0.0334
GTCTGCGA | -0.0703
AGTCGTCG | 0.0519
TGCAAGCA | -0.0929
CGTCATTC | 0.177
ACCAGCTA | -0.0791
ATTATCCC | 0.0625

Sequence | PBM E-score
ATGCGCAA | 0.147
CGTGAAAG | -0.216
ACTGCCCA | -0.0398
GTAGCTAA | -0.13
CAGGCAGA | -0.049
CTAGCGGC | -0.26
GCCGCGTA | -0.118
AGTAGGCC | -0.0399
AACTGGTC | -0.134
AGAGGGTG | -0.0291
CATGCTCA | 0.17
AGCCTTCG | -0.103
CATGCCTC | -0.00371
CTGAGCAA | -0.0558
CCTTGCAC | -0.058
ATCCATGA | 0.22
CAGGACCA | 0.0761
CCGTGGCC | -0.195
CTGAAAAG | -0.258
GAACGTTC | -0.199
GAGCGTAC | -0.0561
ATTGCCAC | -0.00942

Sequence | PBM E-score
AGCGATTA | 0.0481
AGCCGAAG | -0.0421
ATCCTAGG | -0.0544
CCTACAGA | -0.0624
ACCCCGGT | -0.0315
CTGGAGCC | 0.00223
AATGGGGT | 0.174
CGTAGTTC | -0.271
GGTTAAAC | -0.104
GCCGAGGC | 0.147
ATTTGGGC | -0.0613
CGAGCACG | -0.0435
AGCGAGAT | 0.153
ATCGCTTC | -0.056
CTTAAGGC | -0.172
GCAAACCA | 0.218
GACGTCTC | -0.0562
GAGTGAAA | -0.142
TCCAACCA | 0.114
ATCTAGGG | -0.0322
